For the data set the following is noted: Gallus gallus; pH 9.5; 20 °C; Thermal; CD; sodium carbonate 50 mM; reversible: Unknown.

The values that follow come from FireProtDB (doi:10.1016/0014-5793(95)00846-2).

Regarding “Lysozyme C wild type (sequence left out)”, the unfolding free energy was determined as 12.7 kcal/mol.
